Out of some 45,000 compounds screened, about 65 (0.1%) were called active. The call rests on the fitted dose curve; in most records, active means well fitted activation curve with a large enough effect; inconclusive means small, poorly fitted or top-dose-only effect; inactive means no such curve, though single readings can be large or run the other way. Some of the results follow.
target: Galactocerebrosidase (Homo sapiens) (UniProt P54803); test: A Novel Cell-Based Assay to Identify Small Molecules for B -Galactocerebrosidase; settings: 145M-Twi-hGALC-G270D cells (Twitcher mouse brain line with human GALC G270D), HMU-beta-Gal fluorescence, 48 h; series mostly up to 57.5 µM; activation: at the top concentration; further: nearly all actives have a fitted effect of over 65% in size; on activation: 0% is about no effect
Chain of UniProt P54803 (P54803 whole entry, looked up): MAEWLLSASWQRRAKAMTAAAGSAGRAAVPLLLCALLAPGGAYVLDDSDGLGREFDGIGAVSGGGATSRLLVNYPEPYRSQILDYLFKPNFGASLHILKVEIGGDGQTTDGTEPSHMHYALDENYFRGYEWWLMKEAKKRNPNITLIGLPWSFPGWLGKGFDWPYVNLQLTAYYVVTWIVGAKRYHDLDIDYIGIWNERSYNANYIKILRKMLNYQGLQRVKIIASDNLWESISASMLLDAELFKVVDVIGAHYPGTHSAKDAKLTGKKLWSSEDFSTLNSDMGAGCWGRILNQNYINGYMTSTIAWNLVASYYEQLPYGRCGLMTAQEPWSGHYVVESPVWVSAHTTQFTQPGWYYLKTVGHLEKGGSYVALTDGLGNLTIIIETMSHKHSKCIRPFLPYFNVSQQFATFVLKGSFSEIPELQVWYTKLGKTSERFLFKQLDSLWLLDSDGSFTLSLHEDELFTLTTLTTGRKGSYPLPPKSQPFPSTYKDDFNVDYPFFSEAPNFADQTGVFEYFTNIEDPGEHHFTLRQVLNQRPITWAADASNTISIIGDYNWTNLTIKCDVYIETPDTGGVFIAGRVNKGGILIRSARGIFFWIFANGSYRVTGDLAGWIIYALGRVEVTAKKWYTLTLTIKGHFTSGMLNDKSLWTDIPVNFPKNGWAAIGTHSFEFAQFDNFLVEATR
Procedure, shortened: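 Fluorescence readout: HMU-β-gal cleavage by mutant GALC (0.1 mM final, citrate/phosphate pH 5.2 with 1 mg/mL taurocholate), stopped with carbonate/bicarbonate plus Triton X-100. Cells: murine Twitcher 145M-Twi expressing human G270D GALC; qHTS for activators.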
Potency means the concentration at half of the fitted maximal effect.

| Compound | activation | Potency |
| --- | --- | --- |
| COc1cc(OC)c(C(=O)NCc2nc(-c3ccccc3)no2)cc1OC | inactive: -12.7% | – |
| O=C(Nc1cc(Cl)cc(Cl)c1)c1ccc(F)c(S(=O)(=O)N2CCCC2)c1 | inactive: -20.4% | – |
| CCCC(=O)Oc1c(Sc2ccc(C)cc2)c(C)nn1-c1ccccc1 | inactive: -22.3% | – |
| CCOC(=O)C1CCC(CN(Cc2ccc(OC)cc2)S(=O)(=O)c2ccc(C)cc2)CC1 (centres undefined) | inactive: -9.69% | – |
| COc1ccc(CCNC(=O)C(=O)NCC(c2ccco2)S(=O)(=O)c2cccs2)cc1 (centres undefined) | inactive: -25% | – |
| CCC(Sc1nc2cc3c(cc2c(=O)n1CCCCCC(=O)NCc1ccc2c(c1)OCO2)OCO3)C(=O)NCCCOC (centres undefined) | inactive: -6.59% | – |
| Cc1nn2c(=O)cc(COC(=O)c3ccc(NC(=O)CCc4ccccc4)cc3)nc2s1 | inactive: -11.3% | – |
| CCc1noc(-c2ccc(N3CCC(C)CC3)c([N+](=O)[O-])c2)n1 | inactive: -32.7% | – |
| Cc1cccc(OCCn2c(SCC(N)=O)nc3ccccc32)c1 | inactive: -22.3% | – |
| O=C(Nc1cccc(Br)c1)Nc1nc2c(s1)CCCCCC2 | inactive: -7.79% | – |
| COc1cc2c(C(=O)N3CCN(c4cccc(Cl)c4)CC3)cn(C)c(=O)c2cc1OC | inactive: 4.75% | – |
| O=C(CN1C(=O)c2cccnc2Oc2ccc(Cl)cc21)NCCCN1CCCCC1 | inactive: 6.36% | – |
| CC(C)C(=O)Nc1ccccc1C(=O)OCc1cc(=O)n2nc(C3CC3)sc2n1 | inactive: 3.19% | – |
| COc1cccc(CCNC(=O)c2ccc(Cn3c(SCc4ccccc4)nc4cccnc43)cc2)c1 | inactive: -38.6% | – |
| CCOc1ccc(NC(=O)NC(C)c2c(-n3cccc3)sc3c2CCN(CC)C3)cc1 (centres undefined) | inactive: -16.7% | – |
| O=C(Nc1ccc2nc(SCCOc3ccccc3)sc2c1)c1ccco1 | inactive: -11.4% | – |
| Cc1cccn2c(=O)c3cc(C(=O)NC(C)C)n(C)c3nc12 | inactive: -6.59% | – |
| Cc1cccc(-c2nc3cc(NC(=O)c4ccc(OCC(C)C)cc4)ccc3o2)c1 | inactive: -14% | – |
| COc1ccc(NC(=O)c2cnc(N3CCOCC3)c3ccccc23)cc1OC | inactive: -15.9% | – |
| Cc1ccn2c(c1)nc(=O)c1cc(S(=O)(=O)N3CCCCC3)ccc12 | inactive: -8.31% | – |
| Cc1ccccc1NC(=O)C1CCN(C(=O)c2ccc(F)cc2)CC1 | inactive: -18.6% | – |
| COc1ccc(-c2nc3ccccc3n2Cc2ccc(C(C)C)cc2)cc1 | inactive: -11.3% | – |
| CCOc1ccc(NC(=O)Cn2cc(C(=O)c3ccc(F)cc3)c(=O)c3cc4c(cc32)OCO4)cc1 | inactive: -5.13% | – |
| Cc1ccc(-n2ncc(C(=O)NCCc3ccsc3)c2C2CCN(C(=O)OC(C)(C)C)CC2)c(C)c1 | inactive: -5.94% | – |
| Cc1cccc(N2CCN(c3ncnc4onc(C)c34)CC2)c1C | inactive: -23.7% | – |

| Compound | activation | Potency |
| --- | --- | --- |
| CCc1ccc(C2N=C(N)Nc3nc4ccccc4n32)cc1 (centres undefined) | inactive: -4.8% | – |
| COC(=O)c1cccc(Nc2c(-c3ccc(SC)cc3)nc3nc[nH]n23)c1 | inactive: -17% | – |
| COc1ccc(CCNC(=O)Cn2c(=O)c3sccc3n(CC(=O)Nc3cccc(C(F)(F)F)c3)c2=O)cc1OC | inactive: -4.98% | – |
| O=C(NCc1cccc(Cl)c1)c1cnc(N2CCCCC2)c2ccccc12 | inactive: 2.15% | – |
| Cc1ccc(-c2ncc(Cl)cc2-c2ccc(S(C)(=O)=O)cc2)cn1 | inactive: -17.7% | – |
| Cc1cccc(S(=O)(=O)c2cn(Cc3ccc(F)cc3)c3cc(N4CCCCC4)c(F)cc3c2=O)c1 | inactive: -3.07% | – |
| O=C(CCCCCn1c(=O)[nH]c2ccccc2c1=O)NCCc1ccccc1 | inactive: -14.1% | – |
| COc1ccc(Cl)cc1NC(=O)CN(c1cccc(C)c1C)S(C)(=O)=O | inactive: -7.81% | – |
| CCc1ccc(CNC(=O)CN2C(=O)CSc3ccc(S(=O)(=O)N4CCOCC4)cc32)cc1 | inactive: -12.7% | – |
| COc1cccc(C(=O)N(Cc2ccc(N(C)C)cc2)Cc2ccco2)c1 | inactive: -15.1% | – |
| O=C(CSc1nc2c([nH]c3ccccc32)c(=O)n1-c1ccc(Cl)cc1)NCc1ccccc1 | inactive: -12.8% | – |
| CC(C)CCCC(C)NCCC(C)C (centres undefined) | inactive: 5.48% | – |
| COc1ccc(CCNC(=O)CSc2cc(=O)n(C)c3ccccc23)cc1OC | inactive: -18.4% | – |
| Cc1ccc2sc(N(CCCN(C)C)C(=O)c3ccco3)nc2c1C | inactive: -15.4% | – |
| COc1cc(C(=O)Nc2sc3c(c2C(N)=O)CCC(C)C3)cc(OC)c1OC (centres undefined) | inactive: -8.06% | – |
| CCn1c(=O)c(=O)n(CC)c2cc(N3CCCCC3)c(NC(=O)c3ccc(OC)c(OC)c3)cc21 | inactive: -11.6% | – |
| CCc1ccc(S(=O)(=O)NCc2cccn2Cc2cccc(C)c2)cc1 | inactive: -10.2% | – |
| CC1=C(C(=O)Nc2cc(Cl)ccc2C)C(c2ccccc2F)n2ncnc2N1 (centres undefined) | inactive: -5.05% | – |
| CN1CCN(C(CNC(=O)C(=O)Nc2ccccc2C#N)c2ccc3c(c2)OCO3)CC1 (centres undefined) | inactive: -7.56% | – |
| CCCN(CCC)CCNC(=O)CS(=O)Cc1nc(-c2ccc(OC)c(OC)c2)oc1C (centres undefined) | inactive: -13.6% | – |
| Cc1ccc(-n2nc(C(=O)N3CCCCC3)c(=O)n(C)c2=O)cc1 | inactive: -16.5% | – |
| COc1ccc(NC(=O)Cn2nnnc2-c2ccccc2F)c(C)c1 | inactive: -2.42% | – |
| CCCNC(=O)C1CCC(Cn2c(=O)c3sccc3n(CC(=O)N(CC)CC)c2=O)CC1 (centres undefined) | inactive: -27.5% | – |
| COC(=O)c1ccc(NC(=O)CC2C(=O)N(c3cccc(F)c3)C(=O)N2CC(C)C)cc1 (centres undefined) | inactive: -16.5% | – |
| NCC(=O)O | inactive: 11.2% [at 23.8 µM] | – |

| Compound | activation | Potency |
| --- | --- | --- |
| COc1cccc(C(=O)Nc2nc3c(s2)CCCC3)c1 | inactive: -11% | – |
| CN(Cc1ccccc1)C(=O)C(=O)Nc1ccc2nc3n(c(=O)c2c1)CCCCC3 | inactive: 3.77% | – |
| CNc1ccc(-c2nc(-c3ccccn3)no2)cc1[N+](=O)[O-] | inactive: -3.39% | – |
| COc1ccc(-n2c(=O)c3ccc(C(=O)NCc4ccc(C)cc4)cc3n(CC(=O)Nc3cccc(F)c3)c2=O)cc1 | inactive: -29.3% | – |
| Cc1ccc(CNC(=O)c2cc3cc(C)ccc3n2C)cc1 | inactive: -10.5% | – |
| COc1ccc(CN2C(=O)N(c3cccc(C)c3)C(=O)C2CC(=O)Nc2ccc(F)cc2)cc1OC (centres undefined) | inactive: -12.3% | – |
| CCOC(=O)c1cc(NC(=O)c2ccc(C)cc2)c(=O)n2c1oc1ccccc12 | inactive: -1.76% | – |
| CCOc1cc(CNCCSc2nnnn2C)ccc1OCc1ccc(Cl)cc1Cl | inactive: -8.99% | – |
| Cc1ccc(NC(=O)CN2C(=O)COc3ccc(S(=O)(=O)N4CCCCC4)cc32)cc1Cl | inactive: -9.95% | – |
| COCCCNC(=O)Cn1c(=O)n(-c2ccccc2)c(=O)c2c1c1cc(OC)ccc1n2C | inactive: -13.4% | – |
| CCOc1ccc(C2c3[nH]c4ccccc4c3CCN2C(=O)CSc2ccccc2)cc1 (centres undefined) | inactive: 13.2% | – |
| CC1C(=O)Nc2ccc(S(=O)(=O)Nc3ccccc3Br)cc2NC1=O (centres undefined) | inactive: -8.28% | – |
| COc1cc(Cl)ccc1OC(=O)c1cn(-c2ccccc2OC)c(=O)c2ccccc12 | inactive: -7.66% | – |
| CC(C)CCNC(=O)c1ccc(Cn2c(SCC(=O)NC(C)C)nc3ccccc3c2=O)cc1 | inactive: -22.3% | – |
| Fc1cccc(Cl)c1CNc1n[nH]c(-c2ccco2)n1 | inactive: -6.13% | – |
| Cc1ccc(Cl)cc1N1CCN(C(=O)c2cccn2-c2nnc(N3CCCCC3)s2)CC1 | inactive: -8.01% | – |
| Cc1ccc(C)c(S(=O)(=O)c2nnn3c2nc(NCc2cccs2)c2sccc23)c1 | inactive: -10.9% | – |
| COc1ccc(NC(=O)Cc2csc(COc3cccc(C)c3)n2)cc1OC | inactive: -15.2% | – |
| CCc1ccc(-n2c(SCC(=O)NC(C)CC)nc3n[nH]c(C)c3c2=N)cc1 (centres undefined) | inactive: -10.2% | – |
| COc1ccc(N2CC(NC(=O)c3ccc4c(c3)OCO4)CC2=O)cc1OC (centres undefined) | inactive: -17.3% | – |
| COc1ccc2c(c1)c1c(c(=O)n(-c3ccccc3)c(=O)n1CC(=O)Nc1ccc(F)cc1)n2C | inactive: -9.88% | – |
| Cc1cc(NC(=O)c2ccc(-c3ccc(Br)cc3)o2)cc(-c2nc3ncccc3o2)c1O | inactive: -0.788% | – |
| Cc1c(-c2ccccc2)c(=O)oc2c(CN3CCN(C)CC3)c(O)ccc12 | – | active: 4.47 µM |
| Cc1ccc2nc(Cl)c3cc(C(=O)NCCCN4CCC(C)CC4)sc3c2c1 | inactive: -5.96% | – |
| CC(C)(C)C(=O)NCCCC(=O)O | inactive: -12.6% | – |

| Compound | activation | Potency |
| --- | --- | --- |
| COc1ccc(Cl)cc1C(=O)Nc1ccc2oc(-c3ccc(C(C)(C)C)cc3)nc2c1 | inactive: -8.09% | – |
| Cc1ccc(-c2nc(S(=O)(=O)c3ccc(Cl)cc3)c(N3CCCCC3)o2)cc1 | inactive: -6.25% | – |
| COc1ccc(CNC(=O)Cn2nnc(-c3ccccc3F)n2)cc1 | inactive: -25.5% | – |
| CCCn1ccc2c(OCC(=O)NCc3ccc(F)cc3)cccc2c1=O | inactive: -17.5% | – |
| CCc1cc2c(cc3c(=O)n(CC(=O)N4CCCCC4)nc(CC)n32)s1 | inactive: -1.56% | – |
| CC(C)c1nnc(NC(=O)c2nc(SCc3ccc(F)cc3)ncc2Cl)s1 | inactive: -15.4% | – |
| NC12CC3CC(CC(C3)C1)C2 | inactive: -15.1% | – |
| Cc1cc2n(n1)CCCN2C(=O)Nc1ccc(Cl)cc1 | inactive: -16.3% | – |
| CCCSc1ncc(Cl)c(C(=O)Nc2sc3c(c2C(=O)NCC)CCCC3)n1 | inactive: -5.57% | – |
| CCCSC1=NC2(CCN(C(=O)NC3CCCCC3)CC2)N=C1c1ccccc1 | inactive: -9.03% | – |
| COc1cccc(NC(=O)CN(Cc2ccccc2)S(=O)(=O)c2ccc3nc(C)sc3c2)c1 | inactive: -4.69% | – |
| CSc1ncc(Cl)c(C(=O)Nc2nc3ccc(F)cc3s2)n1 | inactive: -16.5% | – |
| CCOC(=O)c1c(S(=O)(=O)NCC(=O)Nc2ccc(Cl)c(C(F)(F)F)c2)c(C)n(C)c1C | inactive: 3.72% | – |
| CCCCc1nn2c(=O)cc(COC(=O)c3cccc(NC(=O)c4cccc(C)c4)c3)nc2s1 | inactive: -0.859% | – |
| CCN1CCN(C(=O)c2ccc3c(c2)N(Cc2ccccc2)C(=O)c2ccccc2S3=O)CC1 (centres undefined) | inactive: 6.59% | – |
| CCOc1ccc(CNCc2c(C(=O)O)c(C)n(Cc3ccc(F)cc3Cl)c2C)cc1 | inactive: -10.5% | – |
| Cc1nn(CCCC(=O)NCc2cccc(F)c2)c(=O)c2nn(-c3ccccc3)c(C)c12 | inactive: -11.9% | – |
| COc1ccc(OC)c(-c2nc(C(N)=O)c3c(n2)n(-c2ccc4c(c2)OCO4)c(=O)n3C)c1 | inactive: 3.35% | – |
| COc1ccccc1-c1noc(-c2ccc(N(C)Cc3ccccc3)c([N+](=O)[O-])c2)n1 | inactive: -5.78% | – |
| Cc1ccc(NC(=O)Cn2nc(-c3ccc(F)cc3)c3cnc4ccc(C)cc4c32)cc1 | inactive: -13.9% | – |
| CCCN1CCN(c2ncc3c(n2)CCN(Cc2ccc(OC)c(OC)c2OC)C3)CC1 | inactive: -10.3% | – |
| CCCCN(CC)C(=O)CCn1c(=O)c2cccn2c2cccnc21 | inactive: -4.69% | – |
| COc1ccccc1C(=O)c1c(N)c(-c2nc(-c3ccccc3)cs2)c2ccccn12 | inactive: -6.16% | – |
| Cc1ccc(NC(=O)CN(C)S(=O)(=O)c2ccc3c(c2)CCC(=O)N3)c(C)c1 | inactive: -20% | – |

Source: PubChem BioAssay AID1159614 (National Center for Advancing Translational Sciences (NCATS), 2016)
